Values joined by “and” are separate entries in the source; they are usually repeats but may differ in a detail not shown here. Identical values can stand only once. The list shows a part of the results. Further columns of the screen follow, without active or inactive calls. The list favours compounds with an active or inconclusive main result. Potencies come from curve fits of mixed quality, noted in brackets.
Tags describe the fitted curve by direction and shape.

The experiment is described as follows: Natriuretic polypeptide receptor (hNpr1) antagonism - Confirmation. Further: nearly all actives have a fitted effect of over 70% in size. Particulars: HEK293 hNpr1 cGMP GloSensor luminescence, ANP-stimulated; measured here: HEK-hNpr1 cytotoxicity, CellTiter-Glo. Summed up:
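HEK293 cells co-expressing hNpr1 and GloSensor cGMP sensor preloaded 2 h with 2% GloSensor reagent, compounds added 30 min at room temperature, then 0.1 nM hNppA for 20 min; luminescence read before and after agonist. Cytotoxicity counter-screen run.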
A general note: In ATP-based viability assays light output follows the ATP content of the culture.
For the compound `CC(C)CNC(=O)N1CC(Oc2ccc(-c3noc(C4CCOCC4)n3)cc2)C1`, the CC50 was 5.44 µM [falling, full curve]. In the case of `Cc1ccc(OCC(=O)N2CCC(Cc3nc(-c4ccccc4)no3)CC2)cc1`, the CC50 was 21.7 µM [falling, partial curve].

On to `Cc1ccc(NC(=O)O[C@@H]2CC[C@]3(C)[C@H](CC[C@H]4OC(=O)C[C@H]43)[C@]2(C)CO)cc1`, for which the CC50 was 39.6 µM [falling, partial curve]. Take `O=C(Cc1ccc(F)cc1)N1CCN(c2cc(-c3ccc(Cl)cc3)[nH]n2)CC1`: the CC50 was 43.2 µM [falling, single point].

Take `O=S(=O)(c1ccccc1)N1CCCC(c2nc(CCOCC3CCCC3)no2)C1` (stereo unspecified): the CC50 is 30.6 µM [falling, single point]. The figure for `COc1ccccc1CC(=O)N1CCCc2ncc(C(=O)Nc3cccc(F)c3)cc21` is 35.3 µM [falling, partial curve]; for `FC(F)(F)c1ccc(CN2CCC3(CC2)CC(c2cccnc2)=NO3)cc1` it is 19.3 µM [falling, partial curve] and 10.9 µM [falling, partial curve]; for `CC(C)(C)CC(=O)N[C@H]1C[C@@H](Cc2cc(CN3CCN(c4ccccc4)CC3)on2)C1(C)C` it is 3.43 µM [falling, full curve].

In the case of `c1ccc2ncc(CNC[C@H]3COCc4nc5ccccc5n43)cc2c1`, the CC50 is 31.4 µM [falling, partial curve]. Consider `Cc1ccc(NC(=O)C2CCN(c3cc(C(F)(F)F)ncn3)CC2)cc1Cl`, for which the CC50 was 19.3 µM [falling, partial curve].

Turning to `COc1cc(F)cc(-c2cnc3[nH]cc(CC(=O)NCc4cccnc4)c3c2)c1`, the 50% cytotoxic concentration (CC50) was 35.3 µM [falling, partial curve]. The result for `Cc1cccc2c1nc1n2[C@@H](CNCc2ccccc2)COC1` reads 28 µM [falling, partial curve].

Turning to `O=C(Cc1ccc(F)cc1)N1CCN(C(=O)c2nnn3c2COC(c2ccc(Cl)cc2)C3)CC1` (stereo unspecified), the CC50 was 30.6 µM [falling, single point]. The result for `COc1cccc(-c2noc(CC3CCN(C(=O)c4ccc(C)cc4)CC3)n2)c1` reads 9.68 µM [falling, full curve]; that for `CCc1ccc(NC(=O)C2CCN(c3cc(C(F)(F)F)ncn3)CC2)cc1`, 9.68 µM [falling, partial curve]; that for `Fc1ccc(-c2cnc([C@@H]3COCCN3Cc3c[nH]c4ccccc34)[nH]2)c(F)c1`, 39.6 µM [falling, partial curve]. `CC1=C[C@@H](CN2CCOCC2)[C@H](C(C)C)C[C@H]1Cc1nnc(-c2ccncc2)o1`: the CC50 is 35.3 µM [falling, partial curve, poor fit]. The figure for `O=C(c1ccc(F)c(Cl)c1)N1CCC(Cc2nc(-c3cnccn3)no2)CC1` is 38.5 µM [falling, single point]. As for `COc1ccc(S(=O)(=O)N2CCC3(CC2)CC(N(C)Cc2ccccc2)CCO3)cc1` (stereo unspecified), the CC50 is 24.3 µM [falling, partial curve]. The result for `CCNC(=O)Cc1c[nH]c2ncc(-c3ccccc3C)cc12` reads 31.4 µM [falling, partial curve]; that for `O=C(Nc1ccccc1)c1cc2n(n1)CC(c1ccc(Br)cc1)OC2` (stereo unspecified), 30.6 µM [falling, single point]; that for `CC1=C[C@@H](CN(C)Cc2cccnc2)[C@H](C(C)C)C[C@H]1Cc1nnc(-c2ccc([N+](=O)[O-])cc2)o1`, 19.3 µM [falling, partial curve].

For the compound `Cc1nc2cccnc2n1CC1CCCN(S(=O)(=O)c2ccc(C(C)C)cc2)C1` (stereo unspecified), the CC50 was 21.7 µM [falling, partial curve]. The result for `CCCCOc1ccc(C(=O)N2CCC(Cc3nc(-c4ccccc4)no3)CC2)cc1` reads 12.2 µM [falling, partial curve].

Regarding `O=C(CCc1ccccc1)N1CC(Oc2ccc(-c3noc(C4CC4)n3)cc2)C1`, the CC50 was 21.7 µM [falling, partial curve]. The result for `COc1ccc(C(=O)NC2CCCN(c3cc(-c4ccc(Cl)cc4)[nH]n3)C2)c(C)c1` (stereo unspecified) reads 43.2 µM [falling, single point]. The figure for `COc1cc(Cl)ccc1C(=O)N1CCC(Cc2nc(-c3ccc(F)cc3)no2)CC1` is 5.44 µM [falling, full curve]; for `Cc1ccc(OCCC2CCN(C(=O)CCCC(=O)n3nc(C)c4ccccc43)C2)cc1` (stereo unspecified) it is 15.3 µM [falling, partial curve]; for `Cc1nn(C)cc1C(C)NC(=O)CN1CCCc2nc(-c3ccccc3)ncc2C1=O` (stereo unspecified) it is 21.7 µM [falling, partial curve]. The result for `O=C(c1ccncc1)N1CC2CCC(C1)N2Cc1ccc(-c2cccs2)cc1` reads 5.44 µM [falling, full curve]; that for `COc1ccc(C(=O)N2CCN(c3cc(-c4ccc(Cl)cc4)[nH]n3)CC2)cc1F`, 19.3 µM [falling, partial curve]. Regarding `COc1ccc(C(=O)N2CCC(Cc3nc(-c4ccc(F)cc4)no3)CC2)cc1F`, the CC50 was 1.72 µM [falling, full curve]. For `O=C(NC1CCCc2c1cnn2-c1ccc(F)cc1F)c1ccsc1` (stereo unspecified), the CC50 was 21.7 µM [falling, partial curve].

Regarding `O=C(c1ccc(F)cc1F)N1CCN(c2cc(-c3ccc(Cl)cc3)[nH]n2)CC1`, the CC50 is 19.3 µM [falling, partial curve]. The result for `O=C(C1CC1)N1CCC(n2cc(-c3nc(-c4ccccc4)no3)nn2)CC1` reads 24.3 µM [falling, single point]; that for `O=C(N1CCCN(c2cc(-c3ccc(Cl)cc3)[nH]n2)CC1)C1(c2ccccc2)CC1`, 21.7 µM [falling, partial curve]. The figure for `Cc1cc(C)c(S(=O)(=O)N2CC(c3nc(-c4ccncc4)no3)C2)c(C)c1` is 24.3 µM [falling, partial curve]; for `O=[S+]([O-])(Nc1ccccc1)c1ccc2c(c1)OCCN(Cc1ccncc1)C2` it is 44.4 µM [falling, single point].

For the compound `COc1ccc(C(=O)N2CCC3(CC2)N=C(c2cccc(Br)c2)NO3)c(OC)c1`, the CC50 is 21.7 µM [falling, partial curve]. `COc1cccc(-c2noc(CC3CCN(C(=O)c4ccc(C(C)C)cc4)CC3)n2)c1`: the CC50 is 19.3 µM [falling, partial curve].

Regarding `Cc1ccccc1-c1cnc2[nH]cc(CC(=O)NC(C)C)c2c1`, the CC50 was 28 µM [falling, partial curve]. Regarding `Cc1nc2ccccn2c1C(=O)NC(C)c1cnn(-c2ccccn2)c1C` (stereo unspecified), the CC50 was 13.7 µM [falling, partial curve]. `O=C(Nc1ccc(F)cc1)C1CCc2nc(N3CCN(C(=O)C4CCC4)CC3)sc2C1` (stereo unspecified): the CC50 is 9.68 µM [falling, full curve]. The figure for `Cc1nsc(NC(=O)NC23CC4CC(C2)CC(C(C)C)(C4)C3)n1` is 27.3 µM [falling, partial curve].

In the case of `COc1ccc(-c2noc(CC3CCN(C(=O)c4ccccc4C)CC3)n2)cc1`, the 50% cytotoxic concentration (CC50) is 19.3 µM [falling, partial curve]. As for `CCc1noc(CC2CCOC3(CCN(S(=O)(=O)c4cccc(Cl)c4)CC3)C2)n1` (stereo unspecified), the CC50 is 21.7 µM [falling, partial curve]. The result for `CC(C)c1ccc(CC(=O)N2CCCc3ncc(C(=O)Nc4cccnc4)cc32)cc1` reads 35.3 µM [falling, partial curve]; that for `COc1cccc(-c2noc(CC3CCN(C(=O)c4ccc(F)cc4)CC3)n2)c1`, 10.9 µM [falling, partial curve]; that for `CC(C)c1noc(-c2cn(C3CCCN(C(=O)c4cccc5[nH]ccc45)C3)nn2)n1` (stereo unspecified), 24.3 µM [falling, partial curve]. In the case of `Cc1ccc(-c2ccc(O)cn2)c2cccnc12`, the CC50 was 27.3 µM [falling, single point]. As to `COc1ccc(CCC(=O)N2CCC(Cc3nc(-c4ccc(F)cc4)no3)CC2)cc1`, the CC50 is 10.9 µM [falling, partial curve]. The result for `Cc1nn(C)c(C)c1CCCN(C)C(=O)c1ccc2c(c1)C(O)CCCCCN2C` (stereo unspecified) reads 13.7 µM [falling, partial curve]. The result for `COCc1cc(N2CCc3onc(-c4cccc5ccccc45)c3C2)ncn1` reads 21.7 µM [falling, partial curve]; that for `Cc1cc(=O)n(CC(=O)Nc2ccc(F)c(Cl)c2)c(N(C)Cc2ccccc2)n1`, 19.3 µM [falling, partial curve]; that for `COc1ccc(C(=O)Nc2ccc(-c3noc([C@@H]4CCCN4CCCc4ccccc4)n3)cn2)cc1`, 15.3 µM [falling, partial curve]. The result for `O=C(c1ccc2c(c1)OCO2)N1CCCN(c2cc(-c3ccc(Br)cc3)[nH]n2)CC1` reads 21.7 µM [falling, partial curve]; that for `O=C(Cc1ccccc1F)N1CC(Oc2ccc(-c3noc(-c4cccnc4)n3)cc2)C1`, 24.3 µM [falling, partial curve]. Turning to `COc1ccc(CN2C[C@H]3CN(Cc4ccc(C)cc4)CCN3C2=O)cc1`, the CC50 was 28 µM [falling, partial curve]. The result for `COc1ccc(-c2nc(CC3CCN(C(=O)c4n[nH]c(=O)c5ccccc45)C3)no2)cc1` (stereo unspecified) reads 17.2 µM [falling, partial curve]; that for `O=C1NCCCCCCN(Cc2cccc(F)c2)[C@H]2C[C@H](C(=O)N3CCc4ccccc4C3)C[C@@H]12`, 43.2 µM [falling, single point]. The result for `O=C(NCc1ccccc1)c1csc(N2CCN(c3ccc(Cl)cc3)CC2)n1` reads 21.7 µM [falling, partial curve].

For orientation: CC50 means the concentration giving 50% cytotoxicity. Lower therefore signals harm at low concentration.
